From the supplement of paper PMC3334620
Over roughly 33,000 sequences, “E-score (-0.5 to 0.5)” has its median near -0.056; the highest 2% begin near 0.38. The list shows a part of the results.

biological target: Stb4 (UniProt P50104); experiment: PBM E-score (8-mer binding enrichment) (E-score (-0.5 to 0.5)); higher = stronger / more preferred TF binding; most listed sequences are background and not binding sites; settings: protein concentration: 200 nM; construct: GST-DNA-binding domain
In short: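 E-scores (a modified Wilcoxon-Mann-Whitney statistic) were assigned by the Universal PBM Analysis Suite to every ungapped eight-base word pooled with its reverse complement. The input came from universal all-10-mer Agilent arrays made double-stranded by primer extension and probed with GST-tagged yeast transcription factors at about 100-200 nM. Fluorescent anti-GST detected bound protein, and masliner normalised the scans.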

| Sequence | PBM E-score |
| --- | --- |
| ACCAGAAA | -0.0713 |
| AAGCGCCT | -0.0362 |
| GAGGGCCC | -0.0131 |
| CACTTTGA | -0.101 |
| TAGGCATA | -0.215 |
| GCATTGGC | -0.273 |
| GCAATGTA | 0.0551 |
| ACCCCTGC | -0.0296 |
| CGAATTTA | 0.103 |
| ATTGGATC | -0.0271 |
| CGGGAGGC | 0.197 |
| TGGTACAA | -0.239 |
| ACTAATCC | 0.11 |
| GCCTGCCC | 0.0407 |
| TATTATGA | -0.155 |
| CTGAGTTA | -0.159 |
| AACCGCGG | 0.291 |
| GCACGTCA | -0.127 |
| CCTACAAC | -0.0712 |
| ATCACGTA | -0.177 |
| GCCACACC | -0.088 |
| ATTTGTAG | -0.103 |

| Sequence | PBM E-score |
| --- | --- |
| AGCCAACA | -0.202 |
| ATCTCAGG | -0.0776 |
| AGAGCGAT | -0.253 |
| ACGCGTGC | -0.131 |
| AGGGTGGG | 0.0116 |
| ACCAAAGC | 0.00452 |
| ATGATTTG | -0.208 |
| CATGTTAG | -0.261 |
| AGCCGGCA | 0.316 |
| CTGGGCAC | -0.109 |
| CATACTAA | -0.184 |
| CTATTCTC | -0.0228 |
| ACTGATAA | 0.00381 |
| ACTCCTCT | -0.061 |
| TAGAGATA | -0.0379 |
| CCGACGTC | 0.352 |
| CCATGGAG | -0.244 |
| CAAAGAAG | -0.128 |
| GACAGAAA | 0.0569 |
| AGCGGGTC | 0.0993 |
| GACAGCAC | 0.082 |
| AAATTGAA | -0.126 |

| Sequence | PBM E-score |
| --- | --- |
| AGGAGGGG | -0.0121 |
| AACTCGCA | -0.278 |
| GCACATTA | -0.171 |
| CTCACGAA | -0.183 |
| AAGAGAAC | -0.0683 |
| CCTAGCCA | -0.327 |
| ATATGGGA | -0.0207 |
| ATCTGTCC | 0.149 |
| CGGCTTAC | 0.178 |
| AAGGAAAT | -0.103 |
| CGCAGCAG | -0.15 |
| AGGCAGGA | -0.188 |
| GTGCCGAA | 0.441 |
| AGTTGTAC | 0.0353 |
| CGAGAGTC | 0.0872 |
| AAGAACAG | -0.164 |
| GATACCAA | 0.063 |
| CTTGACGA | -0.0253 |
| CATCGCGC | -0.0475 |
| GCCTACGC | -0.306 |
| CTCGCAAC | -0.0858 |
| AATAATAG | -0.137 |

| Sequence | PBM E-score |
| --- | --- |
| CAAAAAAG | -0.188 |
| ACGTGGTA | -0.112 |
| AAAGTATG | -0.018 |
| GATACTCC | 0.0462 |
| AGCGAATC | -0.0302 |
| AAACAGTC | -0.354 |
| CAGTATAA | 0.126 |
| GCCTAGAC | -0.139 |
| CGAGTCGA | 0.0095 |
| TCGTTTCA | -0.0734 |
| CGGGAGAG | 0.25 |
| ACATTGCC | 0.0763 |
| CTTGCTAC | -0.0158 |
| ACTGGATA | 0.146 |
| AACCCCGT | 0.0263 |
| ACACTTAA | -0.0841 |
| ATGTAGGG | -0.104 |
| CCCACGCA | -0.129 |
| ATTAATCC | 0.192 |
| TCTGCTAA | -0.0533 |
